Test results published in PubChem BioAssay AID2147 (National Center for Advancing Translational Sciences (NCATS), 2009).
Values joined by “and” are separate entries in the source; they are usually repeats but may differ in a detail not shown here. Equal values may be shown once. Screen size: about 230,000 compounds; about 3,600 (1.6%) were called active. Inconclusive means that the source gave no clear call. Such entries were picked first, then a sample of the others. Calls come from the whole dose curve; as a rule, active = well fitted inhibition curve with a large enough effect (not every such curve was filed as active); inconclusive = small, poorly fitted or top-dose-only effect, or another doubt; inactive = no such curve, though single readings can be large or run the other way. Where the call is inconclusive, the potency comes from a doubtful curve fit.

These compounds were tested against Lysine-specific demethylase 4E (Homo sapiens) (UniProt B2RXH2) (assay: qHTS Assay for Inhibitors of Human Jumonji Domain Containing 2E (JMJD2E)). Conditions: JMJD2E catalytic domain, FDH-coupled NADH fluorescence (FDH is formaldehyde dehydrogenase); series mostly up to 57.1 µM; activity change, negative = inhibition: at the top concentration.
Sequence of UniProt B2RXH2 (B2RXH2 whole entry, looked up, the tested form may be a part): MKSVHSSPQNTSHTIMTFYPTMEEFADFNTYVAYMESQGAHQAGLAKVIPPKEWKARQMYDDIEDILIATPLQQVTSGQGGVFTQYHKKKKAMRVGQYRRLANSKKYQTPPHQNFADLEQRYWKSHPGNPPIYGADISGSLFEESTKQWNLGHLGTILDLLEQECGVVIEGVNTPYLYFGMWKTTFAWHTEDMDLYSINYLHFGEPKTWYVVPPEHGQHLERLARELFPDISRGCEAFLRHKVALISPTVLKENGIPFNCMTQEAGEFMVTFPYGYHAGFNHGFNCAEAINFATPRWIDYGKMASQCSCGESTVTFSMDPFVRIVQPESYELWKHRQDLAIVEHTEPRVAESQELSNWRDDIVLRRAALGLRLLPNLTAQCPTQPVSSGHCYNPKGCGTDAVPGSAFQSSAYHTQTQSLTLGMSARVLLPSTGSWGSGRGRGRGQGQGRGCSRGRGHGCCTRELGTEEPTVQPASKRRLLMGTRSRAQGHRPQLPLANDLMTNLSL
Note: nearly all actives have a fitted effect of over 50% in size.
Potency is the fitted concentration of half-maximal effect; tags give direction and shape of the fitted curve.
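Throughout, for activity change, negative = inhibition: 0% = wells with enzyme and -100% = buffer wells without enzyme.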

| SMILES | Potency | activity change, negative = inhibition |
| --- | --- | --- |
| CCN1C(=O)/C(=C/c2ccc3c(c2)CCN3CCCCl)C(=O)NC1=S | inconclusive: 35.5 µM [inhibitor, single point] | – |
| Cc1cccc(N2C(=O)NC(=O)/C(=C/c3ccc(-c4ccc(C(=O)O)c(Cl)c4)o3)C2=O)c1 | inconclusive: 25.1 µM [inhibitor, single point] | – |
| O=C(O)C1Sc2[nH]c(=O)sc2C2c3cc(Cl)ccc3OC(=O)C12 (stereo unspecified) | active: 14.1 µM | – |
| C=CCNC(=O)c1c(N)n(Cc2ccco2)c2nc3ccccc3nc12 | inconclusive: 25.1 µM [inhibitor, partial curve] | – |
| COc1cccc(OCC(=O)N2CCN(C)CC2)c1 | – | inactive: -6.06% |
| O=C(CSC1c2ccccc2-c2ccccc21)N/N=C/c1ccccc1C(=O)O | – | inactive: -12.6% |
| Cc1nc2c(C(=O)N3CCC4(CC3)OCCO4)cnn2c(C)c1Cc1cccc(Cl)c1 | inconclusive: 28.2 µM [inhibitor, partial curve] | – |
| Nc1cc2nc3ccccc3nc2cc1N | – | inactive: -1.7% |
| Cc1ccc(-c2[nH]nc3c2C(c2ccccc2OC(=O)N2CCOCC2)C(C#N)=C(N)O3)cc1 (stereo unspecified) | inconclusive: 35.5 µM [inhibitor, single point] | – |
| O=C(CN1CCCCC1)c1ccccc1Cl | – | inactive: -4.63% |
| CCOC(=O)c1c(N)n(Cc2ccccc2)c2nc3ccccc3nc12 | inconclusive: 3.16 µM [inhibitor, full curve] | – |
| C[n+]1c(-c2ccccc2)cc(CCCCc2cc(-c3ccccc3)[n+](C)c(-c3ccccc3)c2)cc1-c1ccccc1 | inconclusive: 35.5 µM [inhibitor, single point] | – |
| CCC(C)N1C(=O)/C(=C\c2ccc(N3CCCCCC3)cc2)C(=O)NC1=S (stereo unspecified) | inconclusive: 25.1 µM [inhibitor, single point] | – |
| CC(N)C(O)c1ccc(O)c(O)c1 (stereo unspecified) | active: 7.08 µM and active: 15.8 µM | – |
| Cc1ccc(O)c(C(=O)c2cc(C(=O)NCc3ccccc3)c(=O)n(Cc3ccccc3)c2)c1 | – | inactive: -3.11% |
| O=C(O)Cc1cnc[nH]1 | active: 14.1 µM | – |
| CC(C)(C)NC(=S)N1CCn2cccc2C1c1cccnc1 (stereo unspecified) | inconclusive: 31.6 µM [inhibitor, single point] | – |
| Cc1ccc(OCCn2cccc2/C=C2/C(=O)NC(=O)N(Cc3ccco3)C2=O)cc1 | – | inactive: -2.71% |
| Cc1ccc(-n2sc3ccccc3c2=O)cc1 | active: 28.2 µM | – |
| COC(=O)[C@@H]1[C@@H](C(=O)OC)C2(c3ccccc3-c3ccccc32)N(c2ccc(Cl)cc2)N1C#N | inconclusive: 39.8 µM [inhibitor, single point] | – |
| COCCOC(=O)c1c(N)n(Cc2ccccc2)c2nc3ccccc3nc12 | inconclusive: 31.6 µM [inhibitor, partial curve] | – |
| S=P(Nn1cnnc1)(c1ccccc1)c1ccccc1 | – | inactive: 12.2% |
| CCOP(=O)(OCC)c1nc(-c2ccccc2)oc1NCc1ccccc1 | inconclusive: 25.1 µM [inhibitor, partial curve] | – |

| SMILES | Potency | activity change, negative = inhibition |
| --- | --- | --- |
| COc1ccc(C[C@@H]2NC[C@H](O)[C@@H]2OC(C)=O)cc1 | – | inactive: -0.952% [at 25.5 µM] |
| C=CCn1c(=O)/c(=C\c2ccccn2)s/c1=C(/C#N)C(=O)NCC1CCCO1 (stereo unspecified) | inconclusive: 39.8 µM [inhibitor, single point] | – |
| CCOC(=O)N1CCN(Cc2ccccc2F)CC1 | inconclusive: 22.4 µM [inhibitor, single point] | – |
| C[C@]12CC[C@@H]3c4ccc(O)cc4CC[C@H]3[C@@H]1C[C@@H](O)[C@@H]2O[C@@H]1O[C@H](C(=O)O)[C@@H](O)[C@H](O)[C@H]1O | active: 22.4 µM | – |
| O=C1NO[C@@H]2CN[C@@H](C(=O)O)[C@H]12 | inconclusive: 39.8 µM [inhibitor, single point] | – |
| CCCN1CCO[C@@H]2c3cc(O)ccc3OC[C@H]21 | inactive | – |
| c1ccc2c3c([nH]c2c1)CNCC3 | inconclusive: 39.8 µM [inhibitor, single point] | – |
| O=c1[nH]c(=O)n(-c2ccccc2)c(O)c1/C=C/C=Nc1ccccc1 | – | inactive: -10.5% |
| CN(C)[C@@H]1C(=O)C(C(N)=O)=C(O)[C@]2(O)C(=O)C3=C(O)c4c(O)cccc4[C@@](C)(O)[C@H]3[C@H](O)[C@@H]12 | active: 11.2 µM | – |
| COc1ccc(CCNC(=O)c2c(N)n(CCN3CCOCC3)c3nc4ccccc4nc23)cc1OC | inconclusive: 22.4 µM [inhibitor, partial curve] | – |
| Fc1ccc(C(OCCN2CCCC2)c2ccc(F)cc2)cc1 | – | inactive: 7.83% |
| CCOC(=O)N1CCN(Cc2cn3ccccc3n2)CC1 | inconclusive: 35.5 µM [inhibitor, single point] | – |
| C=C(C)C1Cc2c(ccc3c2OC2COc4cc(OC)c(OC)cc4C2C3=O)O1 (stereo unspecified) | inconclusive: 35.5 µM [inhibitor, single point] | – |
| COc1ccc(CCN)cc1O | – | inactive: 1.7% |
| O=c1[nH]c(=S)n(C2CC2)c(O)c1C=Nc1ccc2c(c1)OCO2 | – | inactive: -65.7% |
| CCN(CC)c1ccc(C=C2C(=O)N(C)C(=S)N(C)C2=O)o1 | – | inactive: -1.79% |
| COC(=O)c1cc2c(cn1)[nH]c1ccccc12 | inconclusive: 25.1 µM [inhibitor, partial curve] | – |
| O=[N+]([O-])c1ccc(N2CCCNCC2)c2ncccc12 | – | inactive: 3.08% |
| C[C@@H]1O[C@@H](O[C@H]2C[C@@H](O)[C@]3(CO)[C@H]4[C@H](O)C[C@]5(C)[C@@H]([C@@H]6COC(=O)C6)CC[C@]5(O)[C@@H]4CC[C@]3(O)C2)[C@H](O)[C@H](O)[C@H]1O | – | inactive: 3.92% |
| CCOC(=O)c1ccc2c(c1)n(Cc1ccccc1)c(C)[n+]2CC | – | inactive: 4.16% |
| N[C@@H](Cc1c[nH]c2ccccc12)c1nnc(SCc2ccc(Cl)cc2)o1 | inconclusive: 11.2 µM [inhibitor, partial curve] | – |
| COCCCn1c(N)c(C(=O)OCCOC)c2nc3ccccc3nc21 | inconclusive: 28.2 µM [inhibitor, partial curve] | – |
| COCCNC(=O)c1c(NC(=O)c2ccc(Br)o2)n(Cc2ccccc2)c2nc3ccccc3nc12 | inconclusive: 3.55 µM [inhibitor, full curve] | – |
